# This is one part of the list.
# T1: UNK ZnF1-3 (human, UniProt Q9C0B0 31-174)
# T1 sequence: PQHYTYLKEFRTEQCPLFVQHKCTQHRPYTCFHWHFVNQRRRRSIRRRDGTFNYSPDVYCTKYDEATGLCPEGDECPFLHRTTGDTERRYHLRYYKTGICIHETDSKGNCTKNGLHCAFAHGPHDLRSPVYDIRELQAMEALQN
# B1: chr4:95690885:95690886:+_ENSMUSG00000028572_ENSMUST00000156910|mus_mus|mus_mus_mus_hu_False|58_78 (ssRNA)
# RNA: GGGAGUUCUACAGUCCGACGAUCUUUAGAAAAUGUUAAAUACCAUGCUAAAAUAUUGUAAUUUUAAUAUUUUAUUUUACUAAAAGACACAGGCAAGCAGACACUACAAGAAUAUAUGAAAAUGAAACUCAACAAUAUAACUGUCAACAGAGGAUUGAGCAUCA
# B2: 70217052_70217172_5078_3pUTR_ENSMUSG00000030465_ENSMUST00000120071|mouse|control|control (ssRNA)
# RNA: GGGAGUUCUACAGUCCGACGAUCCCUGGGUGAAUGAAGGUAAGAAAGAGGUGCUGGAGCCUGUAAAACUGUCUGGUCUGUUUCUGUCUGAGUAACACAGAUGCUCUGAAACAAGAGCUGAUAUGCCUCAGACCCCAAGAUGCACAACAGAGGAUUGAGCAUCA
# B3: 234355436_234356940_1485_3pUTR_ENSG00000077044_ENST00000264057|human|control|control (ssRNA)
# RNA: GGGAGUUCUACAGUCCGACGAUCCACCGUCUCACAGAGCACUUUGGCCGAGGAGAUGACCACCGAGUGCUGGUCCGAGGUGAGGAUUUUAGAAAGGUGGGCUGCAACCGAGUCUUCAUAGAAGAGAAUCUGCUGUACCUCGGACAACAGAGGAUUGAGCAUCA
# B4: chr1:130485734:130485735:-_ENSMUSG00000045382_ENSMUST00000052172|mus_mus|mus_mus_mus_hu_False|58_68 (ssRNA)
# RNA: GGGAGUUCUACAGUCCGACGAUCGAUGAAGGAGUCGAUGCUGAUCCCAAUGUAGUAAGGCAGCCAACAGGCAAAGAAAGCUAGGAUGAGGAUGACUGUGGUCUUGAGGGCCUUGCGCUUCUGGUGGCCCUUGGAGUGUGACAGCAACAGAGGAUUGAGCAUCA
# B5: chr3:148479741:148479742:-_ENSMUSG00000028184_ENSMUST00000106128|mus_mus|FALSE|FALSE (ssRNA)
# RNA: GGGAGUUCUACAGUCCGACGAUCACAAUGCAGGCCUACAGAAAAACAAAACAAAACAAAAACAAAAACCGGUAGGGCCCUAUUUACAGACUCAGUUCACCAACUGCCGCAAGGAACAUGGCCGGGAGGGAGGGUCUCUUGUUUCAACAGAGGAUUGAGCAUCA
# B6: chr16:3748964:3748965:+_ENSMUSG00000022529_ENSMUST00000023176|mus_hu|motif|central (ssRNA)
# RNA: GGGAGUUCUACAGUCCGACGAUCUUCAGUGCAGUCCACACCCAUACACAGUCUUUCAGCUGCAUGUAUUCUCUGGUGCCGGAUUAGGUUUGAGUUGUUAGAGAAAUUUUUGCCACACAAGGGACAUAAAUGGAGUUUCUUUGGCAACAGAGGAUUGAGCAUCA
# B7: 126174126_126174508_2552_3pUTR_ENSMUSG00000042500_ENSMUST00000084289|mouse|control|control (ssRNA)
# RNA: GGGAGUUCUACAGUCCGACGAUCGAGUUCAUCUGCAGUGAAGCAGUUGUCAUCCCACAAGACCUGGUAAUGUGAAGGACGGCUGGUUCCCUGAAUUCCUGCAUGACUACAGAGGUAAAAGUCAAACUCAGACGGGUGUGUGACCAACAGAGGAUUGAGCAUCA
# B8: 85483556_85483676_4876_3pUTR_ENSMUSG00000042523_ENSMUST00000123491|mouse|control|control (ssRNA)
# RNA: GGGAGUUCUACAGUCCGACGAUCUUAAAAUUGUCAGAUCAUAAUUGGUUGUCUGGGUCCUCUAAUCUGCCCAAUAUGGGAAAUCAAUGAGAAUCUGAUUAGGACUUCUCCUGUGUUCUAUCAGGCUAAAAGUCUAUAGUUUUUCAACAGAGGAUUGAGCAUCA
# B9: chr2:32654292:32654293:+_ENSG00000115760_ENST00000421745|hu_hu|motif|central (ssRNA)
# RNA: GGGAGUUCUACAGUCCGACGAUCUAAAGGUUUGGAACCUUCUGAAGAUGGUUCUAUUCCUUUAGAAAGAGAUCCAUCCACGGGUAUAUCAGCUUCAUCAAUAUCAUCACAGGUUCCUCCAAUUUGGAGAAAAUGAAGCUCACCCAACAGAGGAUUGAGCAUCA
# B10: 79727214_79728839_1188_CDS_ENSG00000146247_ENST00000275034|human|control|control (ssRNA)
# RNA: GGGAGUUCUACAGUCCGACGAUCUUCUGAUAUUUUCUCUGGCUGACCUGAUCCAAAAAAAUAAACCCGAAUAAUAUGAUCUGUGCUUCCCGUCGCCAGAAACAUUCCACCAGCACUAAAAGAAGAACAGAUCAUUUGAACUCCCAACAGAGGAUUGAGCAUCA
# B11: chr7:19721593:19721594:+_ENSMUSG00000050428_ENSMUST00000053109|mus_mus|motif|central (ssRNA)
# RNA: GGGAGUUCUACAGUCCGACGAUCAUUGGGUAAGUUGCCAUCUGGUGAAUGGGGCUCUCGGACAUUGGAGAUUCGGAAAGCGGUACGCACCUCGCCGGGCCCAGGGCCUGGCCGUUCCUCCUUGCGGAGACCCUUGGUAGGAGGCAACAGAGGAUUGAGCAUCA
# B12: chr8:11614781:11614782:-_ENSMUSG00000031508_ENSMUST00000169782|mus_mus|FALSE|FALSE (ssRNA)
# RNA: GGGAGUUCUACAGUCCGACGAUCAGCGAAGAGCUUCUUUCUCCUGCCUGACCAGGAAGGGAACAAUGCUGUCUCCAUAAAGGAGAGGCUCUGGCUUUUACCACUUUUCCUCUGUUAGGCAAAACAGCCUCUGCUGAUUUCAGACAACAGAGGAUUGAGCAUCA
# B13: chr17:57746147:57746148:+_ENSG00000141367_ENST00000269122|hu_mus|FALSE|FALSE (ssRNA)
# RNA: GGGAGUUCUACAGUCCGACGAUCUUGCCCAGUCUUGCAAGCCGCCUGAAUAUAUUUAAAGUGCACAUCUGGGUCCUGACUAAAGUUAACAAUGGACCCCAGAAAAUAAAAGAGACCUUCAAAACUCUUGAAUGAUUCAAAGAGCAACAGAGGAUUGAGCAUCA
# B14: chr14:66974463:66974464:+_ENSMUSG00000022044_ENSMUST00000074523|mus_hu|mus_mus_mus_hu_False|28_38 (ssRNA)
# RNA: GGGAGUUCUACAGUCCGACGAUCUUGUAGGACGACUUAUUCAGGGGAUCGGCCAGGAAGCAGGAGCAGAACAAGGACACCAGCGGGAGCUCCUUCAUCUUCUCCUUAUAGGCUGCAAGGGUCAUGUUUCUGGGAUCUGGUGGCCAACAGAGGAUUGAGCAUCA
# Target: T1, UNK ZnF1-3
# Test: nsRBNS (natural sequence RNA bind-n-seq); RBNS binding buffer (assumed for nsRBNS): 25 mM Tris pH 7.5, 150 mM KCl, 3 mM MgCl2, 0.01% Triton X-100, 500 ug/ml BSA, 20 U/ml SUPERase-In, 4 C; UNK is unkempt and MSI1 is Musashi-1; names of the RNAs are library labels; protein concentration not given here; high values mean tight binding
row,Binder,binding signal
1,B1,1.57 enrichment R
2,B2,0.625 enrichment R
3,B3,1.43 enrichment R
4,B4,1.45 enrichment R
5,B5,2.67 enrichment R
6,B6,0.81 enrichment R
7,B7,1.13 enrichment R
8,B8,0.751 enrichment R
9,B9,0.922 enrichment R
10,B10,1.21 enrichment R
11,B11,0.979 enrichment R
12,B12,0.763 enrichment R
13,B13,2.29 enrichment R
14,B14,1.81 enrichment R
